# Measurements reported in PubChem BioAssay AID1768 (National Center for Advancing Translational Sciences (NCATS), 2009).
# Screen size: about 270,000 compounds; about 620 (0.23%) were called active. Inconclusive means that the source gave no clear call. Such entries were picked first, then a sample of the others. Calls follow the shape of the dose curve; as a rule, active = well fitted inhibition curve with a large enough effect in the polarisation, with a control signal flat (not every such curve was filed as active); inconclusive = small, poorly fitted or top-dose-only effect, or effect the other way, or a change in a side signal; inactive = no such curve, though single readings can be large or run the other way; the % refers to the polarisation. Potencies of inconclusive entries are doubtful fits and often do not repeat. “Side channel” marks fits to a control or component signal instead of the main read-out.
# Biological target: Menin (Homo sapiens) (UniProt O00255)
# UniProt O00255, sequence (O00255 whole entry, looked up): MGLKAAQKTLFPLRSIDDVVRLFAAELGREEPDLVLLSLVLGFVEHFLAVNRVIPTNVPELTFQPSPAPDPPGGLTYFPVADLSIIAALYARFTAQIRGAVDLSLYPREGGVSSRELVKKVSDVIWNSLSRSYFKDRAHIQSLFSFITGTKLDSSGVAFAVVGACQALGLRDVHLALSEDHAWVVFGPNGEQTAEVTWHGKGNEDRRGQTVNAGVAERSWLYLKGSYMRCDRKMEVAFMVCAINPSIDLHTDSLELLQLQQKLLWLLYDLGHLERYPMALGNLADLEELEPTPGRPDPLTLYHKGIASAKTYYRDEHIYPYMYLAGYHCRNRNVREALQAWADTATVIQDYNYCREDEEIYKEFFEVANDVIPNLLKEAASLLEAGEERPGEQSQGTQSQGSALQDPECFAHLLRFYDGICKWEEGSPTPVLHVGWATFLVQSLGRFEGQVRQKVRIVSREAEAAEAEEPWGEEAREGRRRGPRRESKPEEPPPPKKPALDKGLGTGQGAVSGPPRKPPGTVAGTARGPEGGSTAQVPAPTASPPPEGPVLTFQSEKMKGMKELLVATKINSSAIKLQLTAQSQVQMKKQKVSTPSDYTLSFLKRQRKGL
# Assay: qHTS Assay for Inhibitors Targeting the Menin-MLL Interaction in MLL Related Leukemias: Competition With Texas Red Labeled MLL-derived Mutant Peptide; as to FP activity change, negative = inhibition: % of control where 0% means no effect
# Conditions: fluorescence polarization; FP activity change, negative = inhibition: at 61.6 µM (top of the series)
# Potency is read from the fitted curve at half-maximal effect; tags tell the direction and shape of the fitted curve or compound fluorescence and quenching.
SMILES,Potency,"FP activity change, negative = inhibition"
O=C(CSc1nnc(CNc2cccc(C(F)(F)F)c2)n1Cc1ccco1)NCc1ccco1,"inconclusive: 39.8 µM [inhibitor, single point]",
COC(=O)c1cc(NC(=O)Nc2cccc(Cl)c2)ccc1Cl,"inconclusive: 3.55 µM [quencher, side channel, partial curve]",
OC[C@H]1OC(O)[C@H](O)[C@@H](O)[C@@H]1O (stereo partly drawn),inactive,
CC(C)NC(=S)NN=C1CCC(c2ccccc2)CC1 (stereo not drawn),"inconclusive: 39.8 µM [fluorescent, side channel, single point]",
CSc1ccc(S(=O)(=O)Nc2c(C)n(C)n(-c3ccccc3)c2=O)cc1,"inconclusive: 39.8 µM [inhibitor, single point]",
CNc1cc2c(Nc3cccc(Br)c3)ncnc2cn1,"inconclusive: 14.1 µM [quencher, side channel, partial curve]",
Clc1ccc(Sc2cnc3ccccc3n2)cc1,inactive,
N#CC(C(=O)Nc1ccc(Cl)cc1)=C1Nc2ccccc2N1,"inconclusive: 15.8 µM [quencher, side channel, partial curve]",
CNC(=S)N1CCc2cc(OC)c(OC)cc2C1COc1ccc(F)cc1 (stereo not drawn),"inconclusive: 39.8 µM [quencher, side channel, single point]",
CCc1cc2cc3c(cc2nc1SCC(=O)Nc1nccs1)OCO3,"inconclusive: 39.8 µM [inhibitor, single point]",
Cc1ccc(NC(=O)CC2C(=O)N(Cc3ccccc3)C(=S)N2NC(=O)c2ccccc2)c(C)c1 (stereo not drawn),"inconclusive: 25.1 µM [inhibitor, single point]",
Cc1nc(C)c(-c2csc(Nc3ccc(F)cc3)n2)s1,"inconclusive: 15.8 µM [quencher, side channel, partial curve]",
Cc1cc(NS(=O)(=O)c2ccc(NC(=O)c3cnc4scc(C)n4c3=O)cc2)nc(C)n1,"inconclusive: 39.8 µM [inhibitor, single point]",
COc1ccc(C2=NS(=O)(=O)N(C)C(C(=O)Nc3cc(C)ccc3O)=C2)cc1OC,"inconclusive: 28.2 µM [quencher, side channel, single point]",
Cc1cc2c3c(c1)C1(C(=O)N3C(C)(C)CC2C)C(C#N)=C(N)Oc2cc(O)ccc21 (stereo not drawn),"inconclusive: 1.12 µM [inhibitor, full curve, poor fit]",
COc1ccc(OC)c(C(=O)CSc2nnc(Cc3cccs3)n2CCc2ccccc2)c1,"inconclusive: 2.82 µM [inhibitor, partial curve]",
CC(C)C(=O)Nc1ccc(NC(=O)c2ccc3c(c2)OCO3)cc1,"inconclusive: 35.5 µM [fluorescent, side channel, single point]",
CCN(CC)CCN1C(=O)/C(=C\c2ccc(Cl)c([N+](=O)[O-])c2)SC1=Nc1ccc(OC)cc1,"inconclusive: 14.1 µM [inhibitor, single point]",
COc1ccc(CC(=O)OCc2cc3cccc(C)c3[nH]c2=O)cc1,"inconclusive: 10 µM [fluorescent, side channel, partial curve]",
NC(=O)c1nnsc1-c1ccc(-c2snnc2C(N)=O)cc1,"inconclusive: 28.2 µM [inhibitor, partial curve]",

SMILES,Potency,"FP activity change, negative = inhibition"
CC(=O)Nc1ccc(S(=O)(=O)N=S(C)C)cc1,inactive,
COC(=O)C1=C(C(=O)OC)[C@@H]2N(Cc3ccccc3)c3ccccc3[C@@]23C[C@@H](C(=O)OC)N(S(=O)(=O)c2ccc(C#N)cc2)C3=N1,,inactive: 6.39% [at 11.7 µM]
CC(C)(O)c1ccccc1CC[C@H](SCC1(CC(=O)O)CC1)c1cccc(/C=C/c2ccc3ccc(Cl)cc3n2)c1,"inconclusive: 31.6 µM [quencher, side channel, partial curve]",
COc1ccc(/C=N/NC(=S)SC)cc1OC,"inconclusive: 22.4 µM [quencher, side channel, single point]",
CCc1nnc(NS(=O)(=O)c2ccc(NC(=O)c3cc(Cl)ccc3Cl)cc2)s1,"inconclusive: 17.8 µM [quencher, side channel, partial curve]",
O=C(Nn1c(C2CCCCC2)nc2ccccc2c1=O)c1ccc([N+](=O)[O-])cc1Cl,"inconclusive: 22.4 µM [quencher, partial curve, poor fit]",
CCOc1ccc(-n2ccc(=O)c(C(=O)O)n2)cc1,inactive,
COc1cccc(-n2nc(C#N)c(Cl)cc2=O)c1,"inconclusive: 35.5 µM [quencher, side channel, single point]",
Nc1ccccc1C(=O)/C=C/c1ccc2c(c1)OCO2,"inconclusive: 35.5 µM [quencher, side channel, partial curve]",
CCOc1ccc(NS(=O)(=O)c2ccc(NC(=S)NC(C)=O)cc2)cc1,"inconclusive: 39.8 µM [fluorescent, side channel, single point]",
Cc1nn(C)cc1S(=O)(=O)N1CCN(c2cccc(Cl)c2)CC1,"inconclusive: 39.8 µM [fluorescent, single point]",
CC(C)[C@H](NS(=O)(=O)c1ccccc1)C(=O)OCC(=O)N1N=C(c2ccc(Cl)cc2)CC1c1ccco1 (stereo partly drawn),inactive,
CCOc1ccc2c(c1)-c1c(ssc1=S)C(C)(C)N2C(=O)CSC1=NCCS1,inactive,
Cn1ccnc1SCC(=O)n1c2c(c3ccccc31)CCCC2,inactive,
COc1ccccc1NCCC(=O)OCC(=O)NCc1ccco1,"inconclusive: 17.8 µM [quencher, side channel, single point]",
CC(=O)NC1=C(Nc2ccc(N(C)C)cc2)C(=O)c2ccccc2C1=O,"inconclusive: 17.8 µM [inhibitor, partial curve]",
Cc1nn2c(c1-c1ccccc1)N=C(c1ccco1)CC2c1ccccc1 (stereo not drawn),"inconclusive: 20 µM [quencher, side channel, partial curve]",
Cc1ccc(C(=O)Nc2ccc(S(=O)(=O)N3CCOCC3)cc2)cc1C,inactive,
Oc1cccc2cc3cccc(O)c3c(O)c12,"inconclusive: 39.8 µM [quencher, single point]",
Cc1cccc(C)c1NC(=O)C(NC(=O)CN1C(=O)c2ccccc2C1=O)c1ccccc1 (stereo not drawn),"inconclusive: 22.4 µM [fluorescent, side channel, single point]",

SMILES,Potency,"FP activity change, negative = inhibition"
CN(C)c1ccc(/C=C/c2ccc3ccccc3[n+]2C)cc1,"inconclusive: 7.94 µM [fluorescent, side channel, partial curve]",
Cc1cccc(C(=O)N=c2c(C#N)cc3c(=O)n4cccc(C)c4nc3n2Cc2ccco2)c1,"inconclusive: 28.2 µM [quencher, single point]",
COc1ccc2[nH]c(C)c(CCNc3ccc(C(F)(F)F)cc3[N+](=O)[O-])c2c1,"inconclusive: 10 µM [quencher, side channel, partial curve]",
CC(C)=CCCC1=CCC(/C(C)=N/NC(N)=O)CC1 (stereo not drawn),"inconclusive: 10 µM [fluorescent, side channel, partial curve]",
O=C(COC(=O)c1cc(-c2cccc3ccccc23)nc2ccccc12)NC1CCS(=O)(=O)C1 (stereo not drawn),"inconclusive: 39.8 µM [inhibitor, single point]",
COc1ccc(NC(=O)CC2C(=O)N(c3ccc(Cl)cc3)C(=S)N2CCc2ccccn2)cc1 (stereo not drawn),"inconclusive: 8.91 µM [quencher, side channel, partial curve]",
CCN(CC)C(=O)CC(c1ccc(OC)cc1)c1c(OC)cc(OC)c2c(-c3ccccc3)cc(=O)oc12 (stereo not drawn),inactive,
Cc1ccc(C)c(-c2ccc(=O)n(Cc3cccc(Br)c3)n2)c1,"inconclusive: 7.94 µM [fluorescent, side channel, partial curve]",
Cn1nnc2cc(C(=O)Nc3ccccc3)ccc21,"inconclusive: 39.8 µM [inhibitor, single point]",
CC(C)Cn1c(O)c(/C=C2\C=NN=C2c2ccccc2)sc1=S,"inconclusive: 14.1 µM [quencher, side channel, partial curve]",
Cc1cccc(CSc2nc3c(c(=O)[nH]2)CCCC3)c1,"inconclusive: 15.8 µM [fluorescent, side channel, single point]",
Cc1ccc2c(c1)C1CN(C)CCC1N2C(=S)NC(=O)c1ccc(Br)cc1 (stereo not drawn),"inconclusive: 2.51 µM [inhibitor, partial curve]",
O=C(N1CCOCC1)N1CCCN(C(=O)N2CCOCC2)CC1,"inconclusive: 39.8 µM [inhibitor, single point]",
CN(/N=C/c1c[nH]c2ccccc12)c1cnn(-c2ccc(F)c(Cl)c2)c(=O)c1Cl,"inconclusive: 8.91 µM [quencher, side channel, partial curve]",
COC(=O)CCSCC(=O)N1N=C(c2ccc(OC)cc2)CC1c1cccc(OC)c1OC (stereo not drawn),"inconclusive: 39.8 µM [fluorescent, side channel, single point]",
Fc1ccc(NC(=S)Nc2cc(-c3ccccc3)[nH]n2)cc1Cl,"inconclusive: 14.1 µM [quencher, side channel, partial curve]",
Cc1ccccc1CN1CCN(C(=O)c2ccco2)CC1,"inconclusive: 14.1 µM [inhibitor, partial curve]",
O=c1[nH]c(C2CCCN(S(=O)(=O)c3cccc(F)c3)C2)nc2c1nnn2Cc1ccccc1 (stereo not drawn),"inconclusive: 8.91 µM [quencher, side channel, single point]",
